Test results: PubChem BioAssay AID1508642 (National Center for Advancing Translational Sciences (NCATS), 2021)
Screen size: about 43,000 compounds; about 200 (0.47%) were called active. Another 12% or so got no clear call; they are omitted. The call rests on the fitted dose curve; in most records, active means well fitted cell-killing curve with a large enough effect; inconclusive means small, poorly fitted or top-dose-only effect, or effect the other way; inactive means flat fitted curve, though single readings scatter. The list shows a part of the results.

experiment: Cell viability qHTS assay in S16 Pmp22-F2sN cells; details: S16 Pmp22-F2sN Schwann cells (luciferase reporters placed in the Pmp22 gene) viability, CellTiter-Glo, 24 h; series mostly up to 57.5 µM; activity change, negative = cytotoxicity: at the top concentration; further: nearly all actives have a fitted effect of over 65% in size
Outline: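 Rat S16 Schwann reporter line, 24 h treatment with library compounds delivered at 23 nL per well. Cell viability by CellTiter-Glo luminescence.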
On the % scale 0 is the no-effect control and ±100 the full control effect.

Question: Which “activity change, negative = cytotoxicity” value does the source give for `CCN(CC)CCNC(=O)c1c2c(nc3ccccc13)C(=O)N(C1CCCCC1)C2` here?
Answer: The value was inactive: 4.26%.

Question: With `Cc1ccc(S(=O)(=O)NCCc2cn3ccsc3n2)c(C)c1` as the compound, how does the “activity change, negative = cytotoxicity” value read?
Answer: The value was inactive: -1.32%.

Question: With `COc1cccc(NC(=O)Cn2cc(C(=O)c3ccc(C)cc3)c(=O)c3cc(OC)ccc32)c1` as the compound, how does the “activity change, negative = cytotoxicity” value read?
Answer: The value was inactive: -12.5%.

Question: Which “activity change, negative = cytotoxicity” value does the source give for `Cc1ccccc1NC(=O)Cn1c(=O)n(Cc2ccc3c(c2)OCO3)c(=O)c2ccccc21` here?
Answer: The value was inactive: 12.9%.

Question: For `CCOc1ccc(NC(=O)/C(C#N)=C\c2ccc(-c3ccc(Cl)cc3)o2)cc1`, which “activity change, negative = cytotoxicity” value is on record?
Answer: The value was inactive: 12.5%.

Question: With `Cc1c(Cl)cccc1NC(=O)CCS(=O)(=O)c1ccc2c(c1)CC(=O)N2C` as the compound, how does the “activity change, negative = cytotoxicity” value read?
Answer: Its value is inactive: 17.7%.

Question: With `O=C(CSc1n[nH]c(-c2ccc(F)cc2)n1)NCCc1ccccc1` as the compound, how does the “activity change, negative = cytotoxicity” value read?
Answer: The value was inactive: 2.6%.

Question: For `COc1ccc(-c2csc(=Nc3ccccc3)n2CCO)cc1F`, which “activity change, negative = cytotoxicity” value is on record?
Answer: The value was inactive: -20.7%.

Question: Which “activity change, negative = cytotoxicity” value does the source give for `CCOC(=O)c1c(Nc2ccc(OC)cc2)nnc(-c2ccccc2)c1-c1ccccc1` here?
Answer: Its value is inactive: -16%.

Question: Which “activity change, negative = cytotoxicity” value does the source give for `CCOc1ccc(NC(=O)COc2ccc(S(=O)(=O)NC3CCCCC3)cc2)cc1` here?
Answer: The value was inactive: 11.7%.

Question: Which “activity change, negative = cytotoxicity” value does the source give for `COc1ccc(Nc2c(-c3cccc(O)c3)nc3cnccn23)cc1` here?
Answer: The value was inactive: -9.07%.

Question: For `CCOC(=O)N1CCc2c(sc3c2c(=O)n(-c2ccc(Cl)cc2)c(=O)n3CC(C)C)C1`, which “activity change, negative = cytotoxicity” value is on record?
Answer: The value was inactive: 13.1%.

Question: Which “activity change, negative = cytotoxicity” value does the source give for `Cc1cccn2c(=O)c(C(=O)NCc3cccc(F)c3)cnc12` here?
Answer: Its value is inactive: -3.31%.

Question: With `CCOc1ccc(CNC(=O)Cc2ccc(NC(=O)N3CCSc4ncccc43)cc2)cc1` as the compound, how does the “activity change, negative = cytotoxicity” value read?
Answer: Its value is inactive: 0.137%.

Question: For `Cc1cccc(-c2nc3scc(CCNS(=O)(=O)c4ccc5c(c4)OCCO5)n3n2)c1`, which “activity change, negative = cytotoxicity” value is on record?
Answer: Its value is inactive: -2.39%.

Question: Which “activity change, negative = cytotoxicity” value does the source give for `Cc1ccc(Cl)cc1Nc1nn2c(=O)c3ccc(C(=O)NCc4ccc(F)cc4)cc3nc2s1` here?
Answer: Its value is inactive: -1.25%.

Question: For `CCCOc1ccc(-c2nc(SCC(=O)c3ccc(Cl)cc3)n[nH]2)cc1`, which “activity change, negative = cytotoxicity” value is on record?
Answer: Its value is inactive: 3.67%.

Question: With `CC(=O)c1ccc(N2CCN(C(=O)C3CCN(S(=O)(=O)c4cn(C)cn4)CC3)CC2)cc1` as the compound, how does the “activity change, negative = cytotoxicity” value read?
Answer: The value was inactive: -4.05%.

Question: For `Cn1c(=O)c2sccc2n2c(CCC(=O)NCc3ccc(Cl)cc3)nnc12`, which “activity change, negative = cytotoxicity” value is on record?
Answer: The value was inactive: 3.26%.

Question: With `CCOc1ccccc1C(=O)NC1(C(F)(F)F)C(=O)Nc2c1c(=O)[nH]c(=O)n2-c1ccc(F)cc1` (configuration not stated) as the compound, how does the “activity change, negative = cytotoxicity” value read?
Answer: Its value is inactive: -0.918%.

Question: With `CSc1ccc(CCNC(=O)CCc2c(C)nc3ncnn3c2C)cc1` as the compound, how does the “activity change, negative = cytotoxicity” value read?
Answer: The value was inactive: 0.0605%.

Question: With `CC(C)c1cnc2c(c1SCC(=O)NCc1ccccc1Cl)c(=O)n(C)c(=O)n2C` as the compound, how does the “activity change, negative = cytotoxicity” value read?
Answer: The value was inactive: -3.31%.

Question: With `Cc1cccc2c1-c1sc(C(=O)N(C)c3cccc(Cl)c3)cc1CO2` as the compound, how does the “activity change, negative = cytotoxicity” value read?
Answer: Its value is inactive: 2.9%.

Question: Which “activity change, negative = cytotoxicity” value does the source give for `COc1ccc(C(CC(=O)Nc2ccc(C(C)=O)cc2)N2Cc3ccccc3C2=O)cc1` (configuration not stated) here?
Answer: The value was inactive: 7.54%.

Question: For `COc1ccc(NC(=O)NC2COc3ccccc3C2)cc1Cl` (configuration not stated), which “activity change, negative = cytotoxicity” value is on record?
Answer: The value was inactive: 18.8%.

Question: Which “activity change, negative = cytotoxicity” value does the source give for `Cc1ccc(CN2C(=O)c3ccccc3CC2(C)C(=O)NC2CCCCC2)cc1` (configuration not stated) here?
Answer: The value was inactive: 14.6%.

Question: Which “activity change, negative = cytotoxicity” value does the source give for `Cc1cccc(N2CCN(C(=O)c3noc4c3COc3ccc(C)cc3-4)CC2C)c1` (configuration not stated) here?
Answer: Its value is inactive: 9.62%.

Question: Which “activity change, negative = cytotoxicity” value does the source give for `Cc1ccc(C(=O)Nc2cccc3cccnc23)cc1Cl` here?
Answer: Its value is inactive: 4.4%.

Question: Which “activity change, negative = cytotoxicity” value does the source give for `COc1cccc(OC)c1C(=O)NCCc1csc(-c2ccc(Cl)cc2)n1` here?
Answer: The value was inactive: 3.85%.

Question: With `COC(=O)c1c(-c2cccs2)csc1NC(=O)COc1ccc(C)cc1` as the compound, how does the “activity change, negative = cytotoxicity” value read?
Answer: The value was inactive: 2.54%.

Question: With `O=c1c(NCc2cccs2)nccn1-c1ccc(F)cc1` as the compound, how does the “activity change, negative = cytotoxicity” value read?
Answer: The value was inactive: -2.49%.

Question: For `Cc1nc2ccccc2n1CCc1nc2c3ccccc3nc(SCc3ccc(C#N)cc3)n2n1`, which “activity change, negative = cytotoxicity” value is on record?
Answer: The value was inactive: -1.26%.

Question: Which “activity change, negative = cytotoxicity” value does the source give for `COc1cccc(NC(=O)CN(CCc2ccccc2)S(=O)(=O)c2ccc(Cl)cc2)c1` here?
Answer: Its value is inactive: -2.48%.

Question: With `Cc1cccc(-c2nc3c4ccccc4nc(NCCc4ccccc4)n3n2)c1` as the compound, how does the “activity change, negative = cytotoxicity” value read?
Answer: The value was inactive: 7.89%.

Question: Which “activity change, negative = cytotoxicity” value does the source give for `O=S(=O)(NCc1nc2cccnc2n1Cc1ccccc1Cl)c1ccc2c(c1)CCCC2` here?
Answer: Its value is inactive: -2.07%.

Question: With `O=C(COCc1cc(-c2ccc(F)cc2)on1)Nc1cc(F)ccc1F` as the compound, how does the “activity change, negative = cytotoxicity” value read?
Answer: Its value is inactive: 5.07%.

Question: Which “activity change, negative = cytotoxicity” value does the source give for `O=C(CCn1cccn1)Nc1ccc(Br)cc1F` here?
Answer: The value was inactive: 6.29%.

Question: For `CCOC(=O)CSc1nc2ccc(NC(=O)c3cccc(F)c3)cc2s1`, which “activity change, negative = cytotoxicity” value is on record?
Answer: Its value is inactive: 3.52%.

Question: With `COc1ccc(CNC(=O)c2ccc3c(c2)N(Cc2c(F)cccc2Cl)C(=O)CS3)cc1` as the compound, how does the “activity change, negative = cytotoxicity” value read?
Answer: Its value is inactive: 2.85%.

Question: With `CCc1cc2c(cc3c(=O)n(CCCC(=O)NCc4cccc(Cl)c4)ncn32)s1` as the compound, how does the “activity change, negative = cytotoxicity” value read?
Answer: Its value is inactive: -4.2%.

Question: With `Cc1cc2c(n1-c1ccc(C(=O)NCc3ccccc3Cl)cc1)CCCC2` as the compound, how does the “activity change, negative = cytotoxicity” value read?
Answer: Its value is inactive: -1.11%.

Question: With `O=C(CCSCc1ccccc1Cl)NCc1ccc(F)cc1Cl` as the compound, how does the “activity change, negative = cytotoxicity” value read?
Answer: The value was inactive: -8.95%.

Question: With `COc1ccccc1N1CCN(C(=O)c2c(C)oc3ncn(C)c(=O)c23)CC1` as the compound, how does the “activity change, negative = cytotoxicity” value read?
Answer: Its value is inactive: 2.78%.

Question: For `CCOc1ccccc1NS(=O)(=O)c1ccc2c(c1)oc(=O)n2C`, which “activity change, negative = cytotoxicity” value is on record?
Answer: Its value is inactive: -11.9%.

Question: For `CCN(CC)CCCNC(=O)Cc1csc2nc(-c3ccc(Cl)cc3)cn12`, which “activity change, negative = cytotoxicity” value is on record?
Answer: Its value is inactive: -14.3%.

Question: With `Cc1ccc(CNC(=O)c2cc(-c3ccc(C)cc3)nc3n[nH]c(-c4cccc([N+](=O)[O-])c4)c23)cc1` as the compound, how does the “activity change, negative = cytotoxicity” value read?
Answer: The value was inactive: 0.0627%.

Question: With `CC1CCN(S(=O)(=O)c2ccc3c(c2)N(CC(=O)NCCCN2CCCCC2)C(=O)CS3)CC1` as the compound, how does the “activity change, negative = cytotoxicity” value read?
Answer: Its value is inactive: 12.5%.

Question: Which “activity change, negative = cytotoxicity” value does the source give for `CC(C)N(C(=O)Cn1cc(S(=O)(=O)Cc2ccc(Br)cc2)c2ccccc21)C(C)C` here?
Answer: Its value is inactive: 14.1%.

Question: Which “activity change, negative = cytotoxicity” value does the source give for `CCOc1ccc(S(=O)(=O)NCCc2c(C)[nH]c3c(Cl)cccc23)cc1C` here?
Answer: Its value is inactive: 7.78%.

Question: With `Cc1cccc(CC(=O)Nc2ccc3nc(N4CCC(C)CC4)cc(C)c3c2)c1` as the compound, how does the “activity change, negative = cytotoxicity” value read?
Answer: The value was inactive: 18.7%.

Question: With `COc1ccc(C(=O)Nc2ccc3nc(SCC(=O)N(C)c4ccccc4)sc3c2)cc1` as the compound, how does the “activity change, negative = cytotoxicity” value read?
Answer: Its value is inactive: -16.9%.

Question: For `CC(C)(C)c1ccc2c(c1)N(CC(=O)NCCCN1CCN(c3ccccc3F)CC1)C(=O)CO2`, which “activity change, negative = cytotoxicity” value is on record?
Answer: The value was inactive: -15.5%.

Question: With `Cc1cc(C)c(NC(=O)Cn2c(=O)n(CCC(=O)NCc3ccccc3Cl)c(=O)c3sccc32)c(C)c1` as the compound, how does the “activity change, negative = cytotoxicity” value read?
Answer: Its value is inactive: 6.19%.

Question: Which “activity change, negative = cytotoxicity” value does the source give for `COc1ccc(-c2cn3nc(N4CCC(C(=O)Nc5cc(Cl)ccc5C)CC4)sc3n2)cc1` here?
Answer: Its value is inactive: 2.74%.

Question: For `COc1ccc(NC(=O)CCCn2c(=O)c3cccn3c3cccnc32)cc1Cl`, which “activity change, negative = cytotoxicity” value is on record?
Answer: The value was inactive: -0.546%.

Question: Which “activity change, negative = cytotoxicity” value does the source give for `O=C(CN1C(=O)C2(SCC(=O)N2c2cccc(Cl)c2)c2ccccc21)NCc1ccccc1` (configuration not stated) here?
Answer: The value was inactive: -13.1%.

Question: For `O=C(CCCCCn1c(=O)c2sccc2n(CC(=O)Nc2cc(C(F)(F)F)ccc2Cl)c1=O)NCc1ccccc1Cl`, which “activity change, negative = cytotoxicity” value is on record?
Answer: The value was inactive: -11%.

Question: For `CCc1cccc(-n2c(=O)c3cccnc3n2CC(=O)NCc2ccc(C)cc2)c1`, which “activity change, negative = cytotoxicity” value is on record?
Answer: Its value is inactive: 5.45%.

Question: Which “activity change, negative = cytotoxicity” value does the source give for `Cc1ccc(NC(=O)Cn2cnc3onc(-c4ccc(F)cc4)c3c2=O)c(Cl)c1` here?
Answer: The value was inactive: 0.987%.

Question: Which “activity change, negative = cytotoxicity” value does the source give for `COc1ccccc1-c1cc2nc(C)c(CCC(=O)NCCc3cccc(C)c3)c(C)n2n1` here?
Answer: Its value is inactive: 20.7%.

Question: With `CC(=O)Nc1ccc(Nc2ncnc3c2cnn3C)cc1` as the compound, how does the “activity change, negative = cytotoxicity” value read?
Answer: The value was inactive: 5.86%.

Question: For `CCOC(=O)c1c(NC(=O)c2cc(OC)c(OC)c(OC)c2)sc2c1CCCC2`, which “activity change, negative = cytotoxicity” value is on record?
Answer: The value was inactive: -10.5%.
